According to PubChem BioAssay AID1508623 (National Center for Advancing Translational Sciences (NCATS), 2021):
Hit rate of the full screen: of about 48,000 compounds, about 450 (0.94%) were called active. About 19% were inconclusive and are not listed. Calls follow the shape of the dose curve; as a rule, active = well fitted inhibition curve with a large enough effect; inconclusive = small, poorly fitted or top-dose-only effect; inactive = no such curve, though single readings can be large or run the other way. Some of the results follow.

assay: Primary qHTS for Identification of Small Molecule Inhibitors of Huntingtin Promoter Activity; conditions: HEK293 HTT promoter firefly luciferase reporter (activity 0% = vehicle and -100% = no light), 24 h; series mostly up to 57.5 µM; activity change, negative = inhibition: at the top concentration; also: nearly all actives have a fitted effect of over 50% in size
How it was run: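 Luminescence was read after Dual-Glo reagent and a 10 min room-temperature incubation. Values were normalized to vehicle (0% activity) and zero RLU (-100% activity). Reporter HEK293 cells had been exposed to compounds (up to 57.5 uM final) for 24 h.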

Activity change, negative = inhibition, inactive:
CCOC(=O)N1CCc2c(sc3c2c(=O)n(CCc2ccccc2)c(=O)n3CC(=O)Nc2cccc(C)c2)C1 -5.25%
CCC(=O)Nc1ccc(CC)cc1-c1nc2ccccc2n(CC(=O)Nc2cccc(OC)c2)c1=O -8.74%
CCOC(=O)c1cc2c(=O)n3ccccc3nc2n(CC(C)C)c1=NC(=O)COc1ccc(Cl)cc1 -1.51%
COc1ccc(C(=O)Nc2ccc3nc4c(c(Nc5ccc(OC)c(OC)c5)c3c2)CCCC4)c(OC)c1 -6.17%
COc1ccc(-c2nc(CS(=O)CC(=O)NCCc3ccccc3)c(C)o2)cc1OC (stereo unspecified) 4.42%
COc1ccc(OC)c(NC(=O)CCCc2nnc3n(C(C)C)c(=O)c4sccc4n23)c1 -10.1%
Cc1ccc(Cl)cc1-n1nnc(-c2nsc(NC(=O)c3ccccc3Cl)n2)c1C -29%
Cc1ccc2oc(C(=O)Nc3ccc(S(=O)(=O)N4CCCC(C)C4)cc3)cc(=O)c2c1 (stereo unspecified) -5.33%
CCc1ccc(-n2c(=O)c3ccccc3n(CC(=O)NCCc3ccc(OC)c(OC)c3)c2=O)cc1 -13.7%
COc1ccc(Cl)cc1NC(=O)NCCn1c(=O)oc2ccc(C)cc21 -21.1%
COc1ccc(C)cc1NC(=O)N1CCC(CN2CCOCC2)CC1 -22%
Cn1cc(S(C)=O)c(=O)c2ccc(F)cc21 (stereo unspecified) -0.484%
Cc1ccc2cc3cc(C(=O)N4CCN(c5ccc(Cl)cc5)CC4)oc3nc2c1 -1.97%
COc1ccc(-c2cn3nc(N4CCC(C(=O)Nc5ccccc5OC)CC4)sc3n2)cc1 3.49%
CCN(CC)C(=O)c1sc2c(c1C)c(=O)n(-c1ccccc1)c(=O)n2Cc1c(C)cc(C)cc1C -0.709%
CC(C)C(NS(=O)(=O)c1ccc2c(c1)oc(=O)n2C)C(=O)N1CCN(c2cccc(Cl)c2)CC1 (stereo unspecified) -29.8%
CCN(CC)C(=O)c1ccc2c(c1)N(Cc1c(F)cccc1Cl)C(=O)c1ccccc1S2 -27.5%
COc1ccc(N2CC(NC(=O)c3cccs3)CC2=O)cc1 (stereo unspecified) 3.94%
O=C(CSc1nc(=O)[nH]c2c1CCCC2)Nc1ccc(Cl)c(Cl)c1 -18.2%
Cc1ccc(-n2nc(C(=O)Nc3ccc(F)cc3Cl)c(=O)n(C)c2=O)cc1 -2.64%
CCN(CC)S(=O)(=O)c1ccc(NC(=O)c2cc3ccc4cccnc4c3[nH]2)cc1 -28.3%
Cc1ccc(C(=O)n2nc(C)c(S(=O)(=O)N3CCCCCC3)c2C)cc1C -11.9%
CCc1nnc(NC(=O)CSc2nccn2Cc2ccc(C)cc2)s1 -35.9%
COc1ccccc1NC(=O)CSc1nc(O)c(C/C=C/c2ccccc2)c(=O)[nH]1 -16.9%
COc1ccc(CNC(=O)c2nc(SCc3ccc(C)cc3)ncc2Cl)cc1 -27.1%
COc1ccc(Cn2c(=O)n(-c3ccc(F)c(Cl)c3)c(=O)c3c2c2cc(OC)ccc2n3C)cc1 -3.77%
CCOC(=O)c1c(S(=O)(=O)N2CCC(C(=O)NCc3cccc(C)c3)CC2)c(C)n(C)c1C -12.1%
Cc1ccc(OCc2nc(-c3ccc(C(=O)NCCc4ccc(Cl)cc4)cc3)oc2C)cc1 -18.8%
Cc1ccc(NC(=O)CN2C(=O)CCc3ccccc32)cc1C -17.6%
COc1ccc(NC(=O)c2nn(C)c3c2CS(=O)(=O)c2ccccc2-3)cc1Cl -19.2%
Cc1ccccc1CN1C(=O)c2ccccc2Sc2ccc(C(=O)NC3CCCCC3)cc21 1.36%
CC(C)Nc1ccc(-c2nc(-c3ccncc3)no2)cc1[N+](=O)[O-] 68.2%
COc1ccc(N(CC(=O)NC(C)c2ccccc2)S(=O)(=O)c2c(C)nn(C)c2C)cc1 (stereo unspecified) -8.15%
COc1ccc(N2CCN(Cc3nc4c(c(=O)[nH]c(=O)n4C)n3Cc3ccc(C)cc3)CC2)cc1 -12.3%
CCOC(=O)c1c(C)[nH]c(C)c1S(=O)(=O)N1CCCC(C(=O)N2CCN(c3ccccc3F)CC2)C1 (stereo unspecified) -17.9%
CCc1nn(CC(=O)N2CCN(c3cccc(OC)c3)CC2)c(=O)c2cc3occc3n12 -6.56%
CC1CN(C(=O)CCC(=O)NCc2cccc(Cl)c2)c2ccccc2S1 (stereo unspecified) -32.4%
O=C(O)c1ccc(Cn2cnc3cccnc32)cc1 -15.2%
CC1CCN(CC2CCN(C(=O)NCc3ccc(F)cc3)CC2)CC1 -4.79%
COc1ccccc1C(=O)N(Cc1nc(-c2cccc(C)c2)no1)C(C)C -27.2%
CCOc1ccc(C2C(C(=O)Nc3ccccc3)=C(C)Nc3nc(SCc4cccc(OC)c4)nn32)cc1 (stereo unspecified) 6.07%
Cc1ccc(/C=C/c2onc(C)c2S(=O)(=O)N2CCC(C(=O)N3CCN(c4cccc(C)c4)C(C)C3)CC2)cc1 (stereo unspecified) -25.1%
Cc1nn(C(C)C(=O)NC2CCC(C)CC2)c(=O)c2c1sc1ccccc12 (stereo unspecified) -2.05%
CCc1nc(-c2cc(S(=O)(=O)N3CCN(c4ccc(OC)cc4)CC3)ccc2OC)no1 -13%
CCc1ccc(OCc2nc(-c3ccc(-n4cccc4)cc3)no2)cc1 13.1%
C=CC(=O)Nc1ccc2ncnc(Nc3ccc(OCc4cccc(F)c4)c(Cl)c3)c2c1 -18.8%
O=S(=O)(NCCc1csc2nc(-c3ccccc3)nn12)c1cccs1 -24.4%
CCOc1ccc(-c2cn3c(n2)sc2cc(C(=O)NCCc4ccc(OC)cc4OC)ccc23)cc1 -15.9%
CC(Oc1c(Cl)cccc1Cl)C1=NCCN1 (stereo unspecified) 10.5%
CCOc1ccccc1NC(=O)C(CC(C)C)NC(=O)C1CCC(C)CC1 (stereo unspecified) -12.9%
COc1cccc2c1cc1c(=O)n(CC(=O)N3CCN(c4cccc(C(F)(F)F)c4)CC3)nc(C)n12 -14.9%
O=C(COc1ccccc1Cl)Nc1nnc(S(=O)(=O)N2CCCC2)s1 -14.5%
Cc1ccc(NC(=O)CCc2c(C)nn(-c3ccc(N4CCOCC4)nn3)c2C)c(C)c1 -10.4%
COc1ccc(-n2nc3ccc(NC(=O)c4ccc(C#N)cc4F)cc3n2)cc1Cl -1.95%
O=C(Nc1cccs1)Nc1ccc(F)cc1F -10.6%
O=C(O)Cn1c(-c2cccs2)cc2cc(Cl)ccc21 3.01%
O=C(Nc1cccc(C(F)(F)F)c1)c1cc(-c2ccc(Cl)s2)nc2ccccc12 -12.5%
COc1ccc(Cn2c(CO)cnc2SCC(=O)Nc2ccc3c(c2)OCCO3)cc1 4.71%
COc1cccc(COC(=O)c2ccc(-c3nnn(Cc4cccc(OC)c4)n3)cc2)c1 1.38%
CCOc1ccc(NC2SC(=O)N(Cc3ccccc3)C2=O)cc1 (stereo unspecified) 1.4%
COc1cccc2sc(NC(=O)CS(=O)(=O)c3ccc(C)cc3)nc12 -18.6%
Cn1c(-n2cccc2)c(-c2c(-c3ccc(F)cc3)[nH]c3c2c(=O)n(C)c(=O)n3C)c(=O)n(C)c1=O 6.29%
COCCCNC(=O)Cn1nc(N2CCN(c3ccccc3)CC2)ccc1=O 2.04%
CCCSc1oc(-c2ccco2)nc1S(=O)(=O)c1ccc(Br)cc1 -20.7%
Cc1ccc(S(=O)(=O)n2nc(-c3ccc(Cl)cc3)nc2NCc2ccccc2)cc1 -7.35%
CN(C)CC/C=C1\c2ccccc2COc2ccccc21 -4.66%
CC1CCc2c(sc3nnn(Cc4cccc(C(=O)OC(C)C)c4)c(=O)c23)C1 (stereo unspecified) -2.5%
CC(=O)N1CCc2c(sc3c2c(=O)n(-c2ccc(F)cc2)c(=O)n3Cc2ccc(C#N)cc2)C1 -3.84%
CCOc1ccccc1CNC(=O)C1CCN(S(=O)(=O)c2c(C)noc2/C=C/c2ccccc2F)CC1 -17.1%
CCn1c(C(=O)NCc2ccccc2OC)cc2sccc21 -21.9%
CC1=C(c2ccc(C(C)C)cc2)S(=O)(=O)N=C1N1CCC(C(=O)NCc2ccccc2)CC1 -30%
COc1ccc(-n2ccnc(NCc3cccs3)c2=O)cc1OC -17%
CCCCOc1ccc(S(=O)(=O)n2nc(C)c(S(=O)(=O)N3CCC(C)CC3)c2C)cc1 -12.6%
CCCOC(=O)C(C)n1nnc2sc(-c3ccccc3)cc2c1=O (stereo unspecified) 20.8%
Cc1ccn2c(Nc3ccc4c(c3)OCO4)c(-c3ccc(O)cc3)nc2c1 4.3%
CCCCN1CCCC1C(=O)Nc1c(C)cc(C)cc1C (stereo unspecified) -0.445%
CCCN1CCN(c2ncnc3sc(C(=O)Nc4ccc(N(CC)CC)cc4C)c(C)c23)CC1 -36.6%
COc1cccc(CNS(=O)(=O)c2cc(Br)cc3c2N(C(C)=O)C(C)C3)c1 (stereo unspecified) -4.89%
O=C(CSCc1cnn(-c2ccccc2)c1-n1cccc1)NCc1ccccc1F -31.8%
COc1cccc(CC(=O)NCc2ccc3c(c2)CCN3C(C)=O)c1 -0.481%
CCc1ccccc1NC(=O)C1CCN(c2nn3c(=O)cc(C)nc3s2)CC1 -15.7%
CN(C)S(=O)(=O)Nc1ccc(-c2cn3ccsc3n2)cc1 40.5%
CCc1ccc(-n2c(=O)c3c4c(sc3n(CC(=O)NCCCOC)c2=O)CCC4)cc1 -15.5%
Cc1ccc2oc(C(=O)Nc3ccc(S(=O)(=O)N(C)Cc4ccccc4)cc3)cc(=O)c2c1 -7.89% [at 11.5 µM]
Cc1ccc(-n2nc(C(=O)N3CCN(c4ccccc4)CC3)c(=O)n(C)c2=O)cc1 0.64%
COC(=O)c1ccccc1NC(=O)c1nc(S(=O)(=O)Cc2ccccc2F)ncc1Cl -7.61%
C[C@]12CC[C@@H]3c4ccc(O)cc4CC[C@H]3[C@@H]1C[C@@H](O)[C@@H]2O 1.59%
CC(NC(=O)c1ccc2nc(CCc3ccccc3)oc2c1)c1ccccc1 (stereo unspecified) 7.22%
Cc1ccccc1Cn1c(C)c(CNCc2ccccc2)c(C(=O)O)c1C -9.08%
O=C(NCCc1ccc(Cl)cc1)c1ccc2c(c1)N(Cc1ccccc1)CCS2 -8.54%
COc1ccc(NC(=O)c2nc(SCc3ccccc3F)ncc2Cl)cc1 4.91%
Cc1ccc(C)c(NC(=O)CCc2c(C)n(C)c3cc(-c4ccccc4C)nn3c2=O)c1 -9.8%
CC(C)c1ccc(C2=CC(c3cccc(Cl)c3)n3ncnc3N2)cc1 (stereo unspecified) -36.9%
Cc1ccc(NC(=O)CCS(=O)(=O)c2cccc3nonc23)c(C)c1 -8.01%
CCOc1ccc(NC(=O)Cn2c(CCC(=O)O)ccc2-c2ccc(Cl)cc2)cc1 0.0837%
Cc1ccc(C)c(Cn2c3ccccc3c3cnn(CC(=O)N4CCCCC4)c(=O)c32)c1 16.5%
